Results on 47 compounds are retold here after PubChem BioAssay AID1508624 (National Center for Advancing Translational Sciences (NCATS), 2021).

Molecules are shown by their SMILES. Out of some 48,000 compounds screened, about 120 (0.25%) were called active. Not shown: some 4% with an inconclusive outcome. Calls follow the shape of the dose curve; as a rule, active = well fitted activation curve with a large enough effect; inconclusive = small, poorly fitted or top-dose-only effect, or another doubt; inactive = no such curve, though single readings can be large or run the other way. This is a selection; strong and weak results do not stand in their true shares. Where no call is shown, the source filed none.

The assay in a line: Primary qHTS for Identification of Small Molecule Activators of Huntingtin-Antisense Promoter Activity. Also: nearly all actives have a fitted effect of over 55% in size. The following applies: HEK293 HTT-AS promoter firefly luciferase reporter, 24 h; activity change, positive = activation: at 57.5 µM (top of the series), percent change from vehicle, -100% = no light. Put shortly: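 Luminescence was read after Dual-Glo reagent and a 10 min room-temperature incubation. Values were normalized to vehicle (0% activity) and zero RLU (-100% activity). Reporter HEK293 cells had been exposed to compounds (up to 57.5 uM final) for 24 h.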
With `CCOC(=O)c1cc(C)n(CC2CCC(C(=O)Nc3ccc(C)c(F)c3)CC2)c1C` (configuration not stated), the activity change, positive = activation is -32.1%. As to `COc1cc2c(-c3ccccc3O)nc3c(c(C)nn3-c3ccccc3)c2cc1OC`, the activity change, positive = activation is -1.91%.

For the compound `O=S(=O)(Nc1cccc(-c2ccc(N3CCOCC3)nn2)c1)c1ccc(F)cc1F`, the activity change, positive = activation is 11.8%. The result for `CC(C)c1ccccc1NC(=O)CSc1nnc(COc2ccccc2Cl)o1` reads inactive: -17.8%; that for `O=C(/C=C/c1ccccc1)N1CCN(Cc2cc(=O)n3nc(-c4ccccc4)sc3n2)CC1`, 6.24%; that for `CCCOc1ccc(C2C(=O)N(C3CCCCCC3)CC(=O)N2CCCOCC)cc1OC` (configuration not stated), -9.98%. The result for `CCOc1ccccc1C(=O)Nc1cc2c(cc1N1CCCCC1)n(C)c(=O)n2C` reads -48.5%; that for `COc1cc(-c2nnc(SCC(=O)Nc3cccc(C#N)c3)o2)cc(OC)c1OC`, -0.132%; that for `CS(=O)(=O)N1CCC(N2CCN(Cc3ccc(F)cc3)C(=O)C2=O)CC1`, 2.36%. As for `Cc1cccc(N(C)c2nc3ccc(C)cc3n3nnnc23)c1`, the figure is -5.96%; as for `O=C(O)CCc1ccc(-c2ccc(Cl)cc2)n1-c1cccc(C(F)(F)F)c1`, -21.8%. As for `COC(=O)c1cc2oc3ccccc3c2n1CC(=O)Nc1cccc(SC)c1`, the activity change, positive = activation was found to be 7.22%. As for `O=C(Nc1ccc2c(c1)OCO2)c1cc(-c2cccc(Cl)c2)on1`, the figure is 15.3%. The result for `COc1ccccc1-c1cc(C(=O)N2CCN(c3ccccc3)CC2)no1` reads 1.53%.

With `O=C(CSc1nc(-c2ccco2)nc2cc(=O)[nH]n12)Nc1ccc(F)cc1`, the activity change, positive = activation was -6.94%. The result for `CCOc1ccc(CC(=O)NCCc2sc(-c3cccc(F)c3)nc2C)cc1` reads inactive: -38.3%; that for `COc1ccc(CNC(=O)Cc2c(C)c3c(O)cc(C)cc3oc2=O)cc1`, 12.6%. As for `CCOc1ccc(NS(=O)(=O)c2ccc3[nH]cc(C(=O)NCc4ccco4)c(=O)c3c2)cc1`, the figure is inactive: -29.7%; as for `CCCOc1ccc(C(=O)Nc2cccc(-c3nc4ccccc4[nH]3)c2)cc1`, inactive: -9.78%.

As for `CCc1nn(CC(=O)NC(C)C)c(=O)c2cc3cc(F)ccc3n12`, the activity change, positive = activation is -1.91%. In the case of `Cc1cccc(C)c1Nc1c(-c2ccsc2)nc2ccccn12`, the “activity change, positive = activation” value was inactive: -33.7%. As for `Cc1cccc(Nc2nnc(-n3nc(C)cc3C)c3ccccc23)c1`, the figure is 51%. The result for `COc1cc(NC(=O)c2cc(-c3ccc4c(c3)OCO4)on2)cc(OC)c1OC` reads 4.69%.

As for `COc1ccc(NC(=O)c2cnn(-c3ccc(C)cc3)c2-n2cccc2)cc1Cl`, the activity change, positive = activation was -24.6%. The result for `O=C(Cn1c(=O)oc2ccccc21)NCc1cccc(Cl)c1` reads 10.7%. The result for `Cc1cccc(CCNC(=O)c2cc3ccccn3n2)c1` reads 54.6%; that for `O=c1ccn([C@@H]2O[C@H](CO)[C@H](O)[C@@H]2F)c(=O)[nH]1`, inactive: -32.1%. As for `O=C(Nc1ccc(C(=O)OCc2cc(=O)n3nc(C4CC4)sc3n2)cc1)c1ccc(F)cc1`, the figure is inactive: 10.7%; as for `COc1ccccc1C(=O)Nc1cc2c(cc1N1CCCCC1)n(C)c(=O)n2C`, -8.01%; as for `COC(=O)c1cc2oc3ccccc3c2n1CC(=O)Nc1ccc(OC)c(OC)c1OC`, -18.8%. As to `COc1cc(NC(=O)CC2C(=O)N(c3cccc(C)c3)C(=O)N2Cc2cccs2)cc(OC)c1` (configuration not stated), the activity change, positive = activation was -33.6%.

Turning to `COc1ccc(-c2nc(SCC(=O)Nc3ccc4c(c3)OCCO4)c(-c3ccccc3)[nH]2)cc1`, the “activity change, positive = activation” value is inactive: -7.96%.

Regarding `CCOC(=O)/C(C#N)=C/c1ccc(-c2ccc(C)cc2)o1`, the activity change, positive = activation came out at 62.5%. As for `CCOC(=O)c1cc(C)n(CC2CCC(C(=O)Nc3cc(OC)cc(OC)c3)CC2)c1C` (configuration not stated), the figure is -16.6%. The result for `COc1ccc(CCN2C(=O)c3[nH]nc(-c4ccccc4O)c3C2c2ccccc2)cc1` (configuration not stated) reads inactive: -30.1%; that for `CCOc1ccc(CNC(=O)CCc2c(C)nn(-c3ccc(N4CCCCC4)nn3)c2C)cc1`, -12.1%. Consider `Cc1ccc(NC(=O)c2c(C)oc3ccc(O)c(CN4CCOCC4)c23)cc1`, for which the activity change, positive = activation was -10.9%. As for `Cc1ccc(OCCCn2c(-c3ccc(Cl)cc3)nc3ccccc3c2=O)cc1C`, the figure is -6.23%; as for `CCc1cccc(NC(=O)CC(c2ccc(OC)cc2)N2Cc3ccccc3C2=O)c1` (configuration not stated), -27%.

With `Cc1oc(=O)oc1COC(=O)[C@@H]1N2C(=O)[C@@H](NC(=O)[C@H](N)c3ccccc3)[C@H]2SC1(C)C`, the “activity change, positive = activation” value was inactive: -0.618%. As for `CCOC(=O)c1c(NC(=O)c2cc(-c3cccc(Cl)c3)on2)sc(C)c1C`, the figure is -5.13%; as for `COc1ccccc1CNC(=O)CCc1c(C)c2cc3c(C)coc3cc2oc1=O`, -3.2%. As for `CCOc1ccc2nc(Cl)c(C3CC(c4ccc(C)cc4)=NN3C(=O)CCC(=O)O)cc2c1` (configuration not stated), the figure is -7.09%; as for `Cc1c(Cl)cccc1NC(=O)CCS(=O)(=O)c1ccc2c(c1)CC(C)N2C(=O)C1CC1` (configuration not stated), -24.4%. As for `COc1cccc(-c2nnc(SCC(=O)N(C)C3CCCCC3)o2)c1`, the figure is inactive: 0.954%; as for `COc1cccc(N2C(=O)C(CC(=O)Nc3cccc(F)c3)N(C3CCCC3)C2=O)c1` (configuration not stated), -14.4%; as for `Cc1nc2ccn(Cc3ccco3)c(=O)c2cc1C(=O)NCc1ccc(Cl)cc1`, -14.6%.
